# The inconclusive results got no clear call from the source; some entries with a clear call stand among them for comparison. For part of these data: Potencies of inconclusive entries are doubtful fits and often do not repeat. Calls of active or inactive are those of the source. Unless noted, calls follow the shape of the dose curve; as a rule, active = well fitted curve in the direction sought with a large enough effect; inconclusive = small, poorly fitted or top-dose-only effect, or another doubt; inactive = no such curve, though single readings can be large; an effect the other way counts as inactive or inconclusive.
# Key:
# [1] = Primary qHTS for inhibitors of nuclear receptor binding SET domain protein 2 (NSD2) in an RCH-ACV wild type WT cells (2C) (AID 1645877); conditions: activity change, negative = cell killing: at 44.9 µM (top of the series) unless noted; also: nearly all actives have a fitted effect of over 70% in size; as to activity change, negative = cell killing: % is scaled to controls: 0 for no effect and ±100 for the full control effect
# [2] = Primary fluorescence-based thiol-reactive (MSTI) qHTS assay for identification of artifact compounds. (AID 1845221);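 also: thiol-reactive compounds lower the probe fluorescence signal; nearly all actives have a fitted effect of over 65% in size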
# Outline: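 Compounds were incubated 1 h at room temperature in the dark with the MSTI probe (4 uM) in PBS pH 7.4, 2% DMSO. Signals were normalized between Acetyl-MSTI and MSTI.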
# [3] = tested on: HaCat; assay: Cytotoxic Profiling of Annotated Libraries Using Quantitative High-Throughput Screening (AID 1296008); conditions: Five cell lines viability, CellTiter-Glo ATP luminescence, 48-72 h; max response: active compounds read low; also: nearly all actives have a fitted effect of over 60% in size; as to max response: % is scaled to controls: 0 for no effect and ±100 for the full control effect
# Outline: (§1)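 Cells exposed to compounds for 48 or 72 hr at 37 degrees Celsius. Viability read as ATP-coupled luminescence with CellTiter-Glo after 10 min at room temperature.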
# [4] = tested on: NIH3T3; assay: as above; conditions: Five cell lines viability, CellTiter-Glo ATP luminescence, 48-72 h; max response: active compounds read low
# Outline: as §1
# [5] = tested on: Hek293T; assay: Primary qHTS to identify gynecologic anti-cancer compounds using libraries of approved drugs and bioactive compounds (AID 1345084); conditions: Gynecologic cancer cell panel viability, ATPlite luminescence, 48 h, control line for the selectivity index; activity change, negative = cytotoxicity: at 57.5 µM (top of the series) unless noted; also: nearly all actives have a fitted effect of over 55% in size; as to activity change, negative = cytotoxicity: % is scaled to controls: 0 for no effect and ±100 for the full control effect
# Outline: (§2)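 Luminescence from the ATPlite ATP-monitoring reagent indicates viable cell number; lower signal means cytotoxicity. Cells received compound 16 h after seeding and were exposed for 48 h across five concentrations.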
# [6] = tested on: SKOV3; assay: as above; conditions: Gynecologic cancer cell panel viability, ATPlite luminescence, 48 h; series mostly up to 57.5 µM
# Outline: as §2
# [7] = tested on: OV90; assay: as above; conditions: Gynecologic cancer cell panel viability, ATPlite luminescence, 48 h; series mostly up to 57.5 µM
# Outline: as §2
# [8] = Primary qHTS for inhibitors of nuclear receptor binding SET domain protein 2 (NSD2) in an isogenic RCH-ACV NSD2 p.E1099K mutant (9B) (AID 1645876); also: nearly all actives have a fitted effect of over 70% in size
# [9] = tested on: Tov-21-G; assay: Primary qHTS to identify gynecologic anti-cancer compounds using libraries of approved drugs and bioactive compounds (AID 1345084); conditions: Gynecologic cancer cell panel viability, ATPlite luminescence, 48 h; activity change, negative = cytotoxicity: at 57.5 µM (top of the series) unless noted; also: nearly all actives have a fitted effect of over 55% in size
# Outline: as §2
# [10] = tested on: PA-1; assay: as above; conditions: Gynecologic cancer cell panel viability, ATPlite luminescence, 48 h; series mostly up to 57.5 µM
# Outline: as §2
# [11] = P-glycoprotein substrates identified in KB-8-5-11 adenocarcinoma cell line, qHTS therapeutic library screen (AID 1346987); also: nearly all actives have a fitted effect of over 65% in size
# Outline: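 In this qHTS, P-gp-rich KB-8-5-11 cells received library compounds across a concentration range. Viability was quantified by luminescence after 72 h at 37 degree C.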
# [12] = tested on: Tov112D; assay: Primary qHTS to identify gynecologic anti-cancer compounds using libraries of approved drugs and bioactive compounds (AID 1345084); conditions: Gynecologic cancer cell panel viability, ATPlite luminescence, 48 h; series mostly up to 57.5 µM; also: nearly all actives have a fitted effect of over 55% in size
# Outline: as §2
# [13] = tested on: CASKI; assay: as above; conditions: Gynecologic cancer cell panel viability, ATPlite luminescence, 48 h; series mostly up to 57.5 µM
# Outline: as §2
# [14] = target: Cytochrome P450 2D6 (Homo sapiens) (UniProt P10635); assay: Cytochrome P450 family 2 subfamily D member 6 (CYP2D6) small molecule antagonists: luciferase biochemical (cell-free) qHTS assay (AID 1645840; active = well fitted curve in the direction sought with a large enough effect in the repeat runs; inconclusive = weak or mixed curves; inactive = no such curve, though single readings can be large; an effect the other way counts as inactive or inconclusive; also: nearly all actives have a fitted effect of over 55% in size)
# Outline: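 P450-Glo CYP2D6 system: proluciferin substrate converted by enzyme to luciferin, read by luminescence proportional to activity. Enzyme-substrate mix with compound 10 min at room temperature, then NADPH regeneration 1 h before detection reagent.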
# [15] = qHTS of pediatric cancer cell lines to identify multiple opportunities for drug repurposing: Primary screen for Rh41 cells (AID 1347108); also: nearly all actives have a fitted effect of over 70% in size
# Outline: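 Phenotypic viability qHTS, 48 h compound exposure, CellTiter-Glo luminescence read-out; multi-concentration dosing so that potency and efficacy derive directly from the primary screen's curves.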
# [16] = tested on: KB-3-1; assay: Cytotoxic Profiling of Annotated Libraries Using Quantitative High-Throughput Screening (AID 1296008); conditions: Five cell lines viability, CellTiter-Glo ATP luminescence, 48-72 h; max response: active compounds read low; also: nearly all actives have a fitted effect of over 60% in size; as to max response: % is scaled to controls: 0 for no effect and ±100 for the full control effect
# Outline: as §1
# [17] = tested on: C33A; assay: Primary qHTS to identify gynecologic anti-cancer compounds using libraries of approved drugs and bioactive compounds (AID 1345084); conditions: Gynecologic cancer cell panel viability, ATPlite luminescence, 48 h; series mostly up to 57.5 µM; also: nearly all actives have a fitted effect of over 55% in size
# Outline: as §2
# [18] = tested on: CAOV3; assay: as above; conditions: Gynecologic cancer cell panel viability, ATPlite luminescence, 48 h; activity change, negative = cytotoxicity: at 57.5 µM (top of the series)
# Outline: as §2
# [19] = tested on: Es-2; assay: as above; conditions: Gynecologic cancer cell panel viability, ATPlite luminescence, 48 h; series mostly up to 57.5 µM
# Outline: as §2
# [20] = tested on: HeLa; assay: as above; conditions: Gynecologic cancer cell panel viability, ATPlite luminescence, 48 h; activity change, negative = cytotoxicity: at 57.5 µM (top of the series)
# Outline: as §2
# Potency is read from the fitted curve at half-maximal effect; tags tell the direction and shape of the fitted curve.
# UniProt P10635, sequence (P10635 whole entry, looked up): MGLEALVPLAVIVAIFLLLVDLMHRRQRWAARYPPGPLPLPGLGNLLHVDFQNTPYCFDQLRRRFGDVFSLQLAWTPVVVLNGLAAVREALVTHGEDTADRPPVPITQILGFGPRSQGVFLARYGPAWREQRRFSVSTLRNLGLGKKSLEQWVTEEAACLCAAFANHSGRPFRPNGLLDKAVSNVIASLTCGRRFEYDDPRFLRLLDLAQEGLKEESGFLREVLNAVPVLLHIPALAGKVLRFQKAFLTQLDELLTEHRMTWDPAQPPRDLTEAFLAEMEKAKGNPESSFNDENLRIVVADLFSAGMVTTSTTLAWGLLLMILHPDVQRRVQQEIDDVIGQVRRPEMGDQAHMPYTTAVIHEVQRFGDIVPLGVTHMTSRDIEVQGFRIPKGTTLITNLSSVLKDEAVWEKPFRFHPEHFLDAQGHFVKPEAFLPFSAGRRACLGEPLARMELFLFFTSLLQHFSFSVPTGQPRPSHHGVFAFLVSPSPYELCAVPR
structure (smiles),measurement,setting,value
COC(=O)C1=COC(O[C@@H]2O[C@H](CO)[C@@H](O)[C@H](O)[C@H]2O)C2C(C)C(=O)CC12 (stereo not given in full),Potency,[1],inactive
same,Potency,[2],"inconclusive: 8.26 µM [inhibitor, partial curve]"
same,max response,[3],inactive: -11.3%
same,outcome,[4],inactive
same,Potency,[5],inactive
same,Potency,[6],inactive
CC(C)(C)c1cc(Br)cc([C@H](CC(=O)O)NC(=O)CNC(=O)c2cc(O)cc(NC3=NCC(O)CN3)c2)c1 (stereo not given in full),Potency,[3],"inconclusive: 23.1 µM [inhibitor, single point]"
same,Potency,[4],"inconclusive: 18.4 µM [inhibitor, partial curve]"
same,Potency,[7],inactive
CC(C)C[C@@H]1[C@H](c2ccccc2)OC(=O)N1CCCN1CCCCCC1,Potency,[8],"inconclusive: 26.6 µM [inhibitor, single point]"
same,Potency,[1],"inconclusive: 26.6 µM [inhibitor, single point]"
same,max response,[3],inactive: -13.9%
same,max response,[4],inactive: -3.61%
same,Potency,[9],inactive
CC1(C)CCC[C@]2(C)[C@H]3CC(=O)O[C@]3(C)CC[C@@H]12,Potency,[1],"inconclusive: 18.3 µM [inhibitor, partial curve, poor fit]"
same,Potency,[3],"inconclusive: 23.1 µM [inhibitor, partial curve]"
same,Potency,[4],"inconclusive: 7.31 µM [inhibitor, partial curve, poor fit]"
same,Potency,[6],inactive
same,Potency,[9],inactive
COC(=O)[C@H](OC(C)=O)[C@H]1C(C)(C)C(=O)[C@H]2CC3=C4CC(=O)O[C@@H](c5ccoc5)[C@]4(C)CCC3[C@@]1(C)C2=O (stereo not given in full),max response,[3],inactive: -1.64%
same,outcome,[4],inactive
same,Potency,[10],"inconclusive: 17.8 µM [rising, single point]"
COc1cc(CNC(=O)CCCC/C=C/C(C)C)ccc1O,Potency,[11],"inconclusive: 16.4 µM [inhibitor, single point]"
same,Potency,[3],"inconclusive: 5.17 µM [inhibitor, partial curve, poor fit]"
same,max response,[4],inactive: -2.4%
same,Potency,[12],inactive
COC1CC(=O)C23C(=O)NC(Cc4c[nH]c5ccccc45)C2C(C)C2(C)OC2C3/C=C/CC(C)CC1O (stereo not given),Potency,[11],"inconclusive: 8.93 µM [inhibitor, single point]"
same,Potency,[3],"inconclusive: 7.09 µM [inhibitor, partial curve, poor fit]"
same,Potency,[4],"inconclusive: 3.55 µM [inhibitor, partial curve]"
same,Potency,[13],"inconclusive: 7.94 µM [cytotoxic, partial curve, poor fit]"
same,Potency,[10],"inconclusive: 20 µM [cytotoxic, single point]"
same,Potency,[6],active: 8.91 µM
same,Potency,[9],"inconclusive: 7.08 µM [cytotoxic, partial curve, poor fit]"
same,Potency,[12],inactive
N#Cc1ccc(C(=O)N2CCC3(CC2)N=C(N)c2c(F)ccc(F)c2N3)cn1,Potency,[14],active: 15.1 µM
same,Potency,[2],"inconclusive: 21.2 µM [inhibitor, partial curve]"
same,max response,[3],inactive: 2.01%
same,max response,[4],inactive: -5.13%
same,Potency,[10],"inconclusive: 3.16 µM [cytotoxic, partial curve, poor fit]"
same,Potency,[6],"inconclusive: 39.8 µM [rising, partial curve, poor fit]"
CCCCCCCCCCCCCC[N+](C)(C)Cc1ccccc1,Potency,[15],active: 18.8 µM
same,Potency,[16],"inconclusive: 18.4 µM [inhibitor, single point]"
same,Potency,[4],"inconclusive: 11.9 µM [inhibitor, partial curve, poor fit]"
same,Potency,[17],active: 25.1 µM
same,Potency,[18],"inconclusive: 15.8 µM [cytotoxic, partial curve, poor fit]"
same,Potency,[19],"inconclusive: 31.6 µM [cytotoxic, single point]"
same,Potency,[5],"inconclusive: 20 µM [cytotoxic, partial curve, poor fit]"
same,Potency,[7],"inconclusive: 31.6 µM [cytotoxic, single point]"
same,Potency,[10],"inconclusive: 15.8 µM [cytotoxic, partial curve, poor fit]"
same,Potency,[6],active: 22.4 µM
O=C(Cc1cccc(OC(F)(F)F)c1)Nc1ccc(CCCCc2nnc(NC(=O)Cc3ccccn3)s2)nn1,Potency,[8],inactive
same,Potency,[1],"inconclusive: 20.9 µM [inhibitor, partial curve, poor fit]"
same,Potency,[3],active: 23.4 µM
same,Potency,[4],active: 26.3 µM
CCCCCOc1ccccc1/C(=C\SC)n1ccnc1,Potency,[15],"inconclusive: 33.5 µM [cytotoxic, single point]"
same,Potency,[8],active: 13.3 µM
same,Potency,[3],"inconclusive: 29.9 µM [inhibitor, single point]"
same,Potency,[20],"inconclusive: 8.91 µM [cytotoxic, full curve]"
same,Potency,[10],"inconclusive: 25.1 µM [cytotoxic, single point]"
same,Potency,[6],"inconclusive: 39.8 µM [cytotoxic, single point]"

# From PubChem BioAssay (NCATS)
